According to US6096504A, “Maize glutathione-S-transferase enzymes” (E. I. du Pont Nemours and Company, priority 1999, dated 2000):

Key:
Assay type in all cases: biochemical
Conditions in all cases: purified enzyme, 0.4 mM electrophilic substrate, 4 mM glutathione, 0.1 M MOPS pH 7.0
[1] = GST conjugation of Atrazine with glutathione (HPLC)
Description: (§1) The GST enzymes, expressed and purified as described in Example 5 were screened for their ability to metabolize a variety of substrates. Substrates tested included the three herbicide electrophilic substrates chlorimuron ethyl, alachlor, and Atrazine, and four model electrophilic substrates, 1-chloro-2,4-dinitrobenzene (CDNB), ethacrynic acid, t-stilbene oxide, and 1,2-epoxy-3-(p-nitrophenoxy)propane. The enzymes were purified as described in Example 5 and used in the following assay.
(§2) For each enzyme, the conjugation reaction with each electrophilic substrate was performed by incubating 0.3 to 30 μg enzyme in 0.1 M MOPS (pH 7.0) containing 0.4 mM of the electrophilic substrate. The reaction was inititated by the addition of glutathione to a final concentration of 4 mM. After 5 to 30 min, the reaction was terminated by the addition of 45 μL acetonitrile, microfuged for 10 min to remove precipitated protein, and then the supernatent was removed and added to 65 μl of water. This sample was chromatographed on a Zorbax C8 reverse phase HPLC column (3 μm particle size, 6.2 mm×8 cm) using a combination of linear gradients (flow=1.5 mL/min) of 1% H3 PO4 in water (solvent A) and 1% H3 PO4 in acetonitrile. […] Quantitation of metabolites were based on an assumption that the extinction coefficient of the conjugate was identical to that of the electrophilic substrate.

[2] = GST conjugation of CDNB with glutathione (HPLC)
Description: as §1, §2

[3] = GST conjugation of 1,2-epoxy-3-(p-nitrophenoxy)propane with glutathione (HPLC)
Description: as §1, §2

[4] = GST conjugation of t-stilbene oxide with glutathione (HPLC)
Description: as §1, §2

[5] = GST conjugation of ethacrynic acid with glutathione (HPLC)
Description: as §1, §2

[6] = GST conjugation of alachlor with glutathione (HPLC)
Description: as §1, §2

[7] = GST conjugation of chlorimuron ethyl with glutathione (HPLC)
Description: as §1, §2

B1: cs1.pk0059.e2: maize class III GST enzyme encoded by cDNA clone, expressed in E. coli (protein)
chain: MADGGELQLLGSWYSPYVIRAKVALGLKGLSYEFVEEDLSRKSDLLLKLNPVHRKVPVLVHGGRPVCESLVILQYVDETWAGTGTPLLPADAYDRAMARFWAAYVDDKFYKEWNRLFWSTTAEKAAEALGVVVPVVETLEQAFRECSKGKPSSAATPSGSWTSRSGASWCGSGWWTRRPA
activity of enzyme with Atrazine [1]: 0.02 nmol/min/mg | activity of enzyme with CDNB [2]: 1348 nmol/min/mg | activity of enzyme with 1,2-epoxy-3-(p-nitrophenoxy)propane [3]: 43 nmol/min/mg | activity of enzyme with t-Stilbene Oxide [4]: 1.25 nmol/min/mg | activity of enzyme with Ethacrynic Acid [5]: 20 nmol/min/mg | activity of enzyme with Alachlor [6]: 8 nmol/min/mg | activity of enzyme with Chlorimuron-Ethyl [7]: 0.1 nmol/min/mg
